Reference: PubChem BioAssay AID686971 (National Center for Advancing Translational Sciences (NCATS), 2013)
Among all 360,000 compounds or so, about 7,500 (2.1%) were called active. Inconclusive means that the source gave no clear call. Such entries were picked first, then a sample of the others. The call rests on the fitted dose curve; in most records, active means well fitted cell-killing curve with a large enough effect; inconclusive means small, poorly fitted or top-dose-only effect, or effect the other way, or another doubt; inactive means no such curve, though single readings can be large or run the other way. Potencies of inconclusive entries are left out as doubtful fits.

Test: qHTS for induction of synthetic lethality in tumor cells producing 2HG: qHTS for the HT-1080-IDH1KD cell line;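 on activity, negative = toxicity: 0% = DMSO wells and -100% = cell-free medium wells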
Details: HT-1080 IDH1 knockdown viability, ATP luminescence, 48 h; activity, negative = toxicity: at 46.1 µM (top of the series) unless noted
Procedure, shortened: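 Assay cells: HT-1080 with IDH1 knockdown, 750 per well, RPMI/5% FBS. Exposure: 48 h at 37 °C following 2 h pre-incubation. Read: CellTiter-Glo luminescence; fitted concentration-response, curve class assigned.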
Potency means the concentration at half of the fitted maximal effect; tags describe the fitted curve by direction and shape.

| SMILES | Potency | activity, negative = toxicity |
| --- | --- | --- |
| O=C(Oc1cccc2cccnc12)c1ccc(N2C(=O)C3C4CCC(C4)C3C2=O)cc1 (stereo unspecified) | active: 13 µM | – |
| COCCNc1ncnc2c1ncn2[C@H]1CN(Cc2ccc(-c3ccccc3)cc2)C[C@@H](CO)O1 | inconclusive [cytotoxic, partial curve] | – |
| COc1ccccc1/C=C/C(=O)NC(=S)Nc1ccc(S(=O)(=O)N(C)c2ccccc2)cc1 | inactive | – |
| C[n+]1ccccc1/C=C1\Sc2ccccc2N1CCO | inconclusive [cytotoxic, partial curve] | – |
| O=C(Cc1ccccc1)NCC(=O)Nc1cc(Cl)ccc1Cl | inconclusive [cytotoxic, single point] | – |
| N#Cc1ccc(Nc2nc(-c3ccccc3)cs2)cc1 | inconclusive [cytotoxic, single point] | – |
| Cc1cc2nc(-c3ccc(SCC(=O)Nc4ccc5c(c4)OCCO5)nc3)[nH]c2cc1C | inconclusive [cytotoxic, single point] | – |
| O=C(c1ccccc1)c1ccc(OCC(O)CNCc2ccc(F)cc2)cc1 (stereo unspecified) | active: 20.6 µM | – |
| O=C(CCCCCCCCCCC(=O)NCc1cccnc1)NCc1cccnc1 | active: 4.61 µM | – |
| O=C(CSc1nnc(CNC(=O)c2cccs2)o1)Nc1ccc(F)cc1F | inactive | – |
| COc1cc(/C=C/C(=O)c2ccc([N+](=O)[O-])o2)ccc1O | inconclusive [cytotoxic, full curve] | – |
| CCOc1ccc(NC(=O)CSc2nnc(-c3ccccc3Cl)n2Cc2ccco2)cc1 | inconclusive [cytotoxic, single point] | – |
| Cc1nc2c(sc3nc4c(cc32)COC(C)(C)C4)c(=O)n1CC(=O)NCc1ccco1 | inconclusive [cytotoxic, full curve] | – |
| O=C(CN1C(=O)C2C3C=CC(C3)C2C1=O)Nc1nc(-c2ccccn2)cs1 (stereo unspecified) | inconclusive [cytotoxic, partial curve] | – |
| O=C1C(Nc2ccc(O)cc2)=C/C(=N/S(=O)(=O)c2cccs2)c2ccccc21 | active: 1.46 µM | – |
| CC1C(=O)N2CCCc3cc(NC(=O)C(=O)NCCc4ccc(F)cc4)cc1c32 (stereo unspecified) | active: 20.6 µM | – |
| CCCNC(=O)C1(C)CCCN(Cc2ccc(-c3ccccc3)o2)C1 (stereo unspecified) | inconclusive [cytotoxic, single point] | – |
| Cc1ccc(O)c(Cc2cc(C)cc(Cc3cc(C)ccc3O)c2O)c1 | inconclusive [cytotoxic, single point] | – |
| COC(=O)CNC(c1ccccc1)c1cc(Br)ccc1NC(=O)CNC(=O)OCc1ccccc1 (stereo unspecified) | active: 20.6 µM | – |
| CCN(CC)CCNC(=O)CSc1c2c(nc3cc(Cl)ccc13)CCCC2 | inconclusive [cytotoxic, single point] | – |
| Cc1ccc(CN2CCSc3ccc(C(=O)N4CCN(c5ncccn5)CC4)cc32)cc1 | inactive | – |
| CC(=O)OC(C)(C)/C=C/C(=O)[C@](C)(O)C1[C@H](O)C[C@@]2(C)C3CC=C4C(C=C(O[C@@H]5O[C@H](CO)[C@@H](O)[C@H](O)[C@H]5O)C(=O)C4(C)C)[C@]3(C)C(=O)C[C@]12C (stereo partly specified) | active: 23.1 µM | – |
| Cc1cc(C)c2sc(N(CCCN(C)C)C(=O)c3ccc(S(=O)(=O)N(C)C4CCCCC4)cc3)nc2c1 | inactive | – |

| SMILES | Potency | activity, negative = toxicity |
| --- | --- | --- |
| COc1ccccc1NS(=O)(=O)c1ccc(Cl)c(NC(=S)NC(=O)C2CCCC2)c1 | – | inconclusive: -33.4% [cytotoxic] |
| Cc1cc(Oc2ccc(Br)cc2)nc(SCC(=O)c2ccccc2)n1 | inactive | – |
| Cc1ccc(S(=O)(=O)Cc2cc(F)c([N+](=O)[O-])cc2[N+](=O)[O-])cc1 | active: 6.51 µM | – |
| CC(NC(=S)NCc1ccc(F)cc1)C12CC3CC(CC(C3)C1)C2 (stereo unspecified) | inconclusive [cytotoxic, single point] | – |
| CCCC(=O)Nc1ccc2c(c1)nc(CN1CCN(C(=O)OCC)CC1)n2CC | inconclusive [cytotoxic, partial curve] | – |
| Cn1c(C(=O)N(Cc2ccccc2)Cc2cccs2)cc2sccc21 | inactive | – |
| S=c1[nH]c2ccc(Cc3ccc4[nH]c(=S)[nH]c4c3)cc2[nH]1 | inactive | – |
| CC1Cc2cc(S(=O)(=O)NCCC(=O)NCc3ccc(F)cc3)ccc2N1C(=O)C1CC1 (stereo unspecified) | inactive | – |
| Clc1ccc(COc2ccccc2CNCc2cccnc2)cc1 | inconclusive [cytotoxic, single point] | – |
| Cc1csc(C(C#N)C(=O)c2cc3ccccc3o2)n1 (stereo unspecified) | inconclusive [cytotoxic, single point] | – |
| COC(=O)Nc1c(-c2ccccc2)nc2ccc(Cl)cn12 | inactive | – |
| CN1CCN(CCOc2ccc(Cc3ccccc3)cc2)CC1 | inconclusive [cytotoxic, single point] | – |
| c1cncc(CSc2ccc(-c3ccc4c(c3)OCO4)nn2)c1 | inconclusive [cytotoxic, partial curve] | – |
| COc1ccc2c(c1)[nH]c1c(N3CCN(Cc4ccc5c(c4)OCO5)CC3)ncnc12 | inconclusive [cytotoxic, single point] | – |
| C[n+]1cccc(O)c1SCc1ccccc1 | active: 23.1 µM | – |
| Cc1ccc2c(c1)N(CC(=O)N1CCN(c3nc4ccccc4s3)CC1)C(=O)C(C)O2 (stereo unspecified) | inconclusive [cytotoxic, single point] | – |
| Cc1cc(NC(=O)CCN2C(=O)C3C4C=CC(C4)C3C2=O)c2ccccc2n1 (stereo unspecified) | inactive | – |
| O=C(NCc1cccnc1)c1cccc(-c2cc3ccccc3oc2=O)c1 | – | inconclusive: -32.9% [cytotoxic] |
| O=C(COc1ccc2ccccc2c1)N1c2ccccc2Sc2ccccc21 | inconclusive [cytotoxic, single point] | – |
| COCCCNC(=O)Cn1c(=O)n(CC(=O)NCCc2ccc(OC)c(OC)c2)c(=O)c2sccc21 | inactive | – |
| COC(=O)c1ccccc1NC(=O)/C=N/O | inactive | – |
| CCc1ccc(NC(=O)CSc2nnc(Cc3cccn3C)n2-c2ccc(OC)cc2)cc1 | inactive | – |
| C=CCNC(=O)c1ccc(CN(c2ccc(OCC)cc2)S(=O)(=O)c2ccc(C)cc2)cc1 | inconclusive [cytotoxic, single point] | – |
